Results reported in the supplement of paper PMC10126150.
Values marked as one replicate rest on one cluster of the flow cell; about a third of the high ones do not repeat.

System: ATP
Assay: switch fluorescence ratio, 500 uM ATP over buffer (Cy3 cluster intensity, sum of 5 cycles each) (fold (ratio)); higher = stronger signal-on switching upon ATP binding; sequences stand for … in TCGTCGGCAGCGTCAGATGTGTATAAGAGACAGTTTTTTTTTTTTTTTTTTTTTTTTT…TC
Conditions: aptamer strand: ATP DNA aptamer (quencher-CACCTGGGGGAGTATTGCGGAGGAAGG + anchor), 100 nM annealed; ATP concentration: 500 uM; one replicate
Summary of the method: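 For every switch-domain sequence, the fluorescence ratio is the mean of per-cluster values, each being summed target-cycle Cy3 intensity over summed buffer-cycle Cy3 intensity. Clusters outside 100-1000 RFU were excluded. On a modified Illumina MiSeq flow-cell, the Cy3-labelled switching-strand clusters were annealed to 100 nM quencher-labelled ATP aptamer, imaged in selection buffer and then after 15 min with 500 uM ATP at 22 °C. Five such cycles were run, with NaOH stripping and re-annealing between them.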
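Note: ATP exposure 15 min at 22 °C before imaging.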

Row | Sequence | switch fluorescence ratio
1 | CATCTACGGT | 0.994
2 | GGAATGGTT | 1.05
3 | GCAAGACAGC | 1.4
4 | GTGAACAAAG | 0.971
5 | GACAATAAAA | 1.04
6 | ATGGAAGGT | 1.22
7 | TTCTTGTATT | 0.979
8 | GCCTGCCGTA | 0.996
9 | TAGGAGGATC | 1.01
10 | CAGCCGGGGG | 1.05
11 | GCCGCCCTTA | 1.08
12 | AGTAGCCGTG | 0.946
13 | GTTGCCGGGA | 0.968
14 | ATTGTTACAA | 0.973
15 | TTCCCAAGGG | 1.6
16 | CAGCGCCCGA | 1.03
17 | AGCATAAAGA | 1.03
18 | GCCACAGCGC | 0.993
19 | TGCAGGGTCA | 1.01
20 | GCCTGGGATG | 0.995
21 | TTGGCGTTTA | 1.01
22 | TGGAATTAAT | 1.03
23 | TACGTCCGAC | 1.44
24 | CTGTACTTTT | 1
25 | AAATTTCGGC | 0.95
26 | ATGCTTAAGA | 1

Row | Sequence | switch fluorescence ratio
27 | GGCCCTGGAT | 0.997
28 | TAAGGTGGCG | 0.947
29 | CTGTGCTCCG | 1.18
30 | TCAGTGTGGA | 1.04
31 | TAGATCTGCC | 1.06
32 | TAGCGCCAGT | 0.936
33 | ACCAGCTGCG | 1.06
34 | ACCTCGTAT | 0.96
35 | TGCGGTATGA | 1.01
36 | TGATACTTG | 0.981
37 | GACGGCCCTT | 1.03
38 | CTCGTCGGGA | 1
39 | GACATTATG | 1.04
40 | ATGAAAACAT | 1.01
41 | GGTATACTGC | 0.973
42 | TTGATCCTTG | 1
43 | TGTAGTTGAT | 1.01
44 | CCAGACTGAG | 0.965
45 | CTGCGGACGT | 1.04
46 | TTGATAATGG | 1.04
47 | GTTACGAAGT | 0.979
48 | ATGTTCGATA | 1.04
49 | CTAACGAGCG | 1.03
50 | GGAACGCGGC | 1.01
51 | CATAAACGTA | 0.959
52 | TACAGGCGCA | 1

Row | Sequence | switch fluorescence ratio
53 | CACGTCCACT | 1.4
54 | TTCTGCGGG | 1
55 | GTACTTGCGA | 1.04
56 | AGCTGCCGCC | 1.01
57 | TTATACGCCG | 1.01
58 | GGGGTGTGGA | 1.01
59 | GTGTTCTCTG | 1
60 | AACGCTGTTA | 0.985
61 | GAGATGGGCT | 0.984
62 | GCTTCTCAAT | 1.23
63 | GAGGGATCTG | 0.943
64 | TCCCTTCCAG | 1.05
65 | TTACCGAAAC | 1.21
66 | GCCCATGTAT | 0.937
67 | GGGCGAGCAT | 1.04
68 | CGTGACTAGC | 1.07
69 | TAGACGCTGC | 1.06
70 | CCACCGTCGT | 1.32
71 | ACATAAGAC | 1.05
72 | TTAAATGATA | 1.03
73 | AGTAAATTGA | 0.975
74 | CGTCCGCGTA | 4.53
75 | CGCACGCTGG | 1.08
76 | ATGTGATGTG | 0.95
77 | GAGAGATTTC | 1.05
78 | TAACTCTGCT | 1.07

Row | Sequence | switch fluorescence ratio
79 | GGGGTATTTA | 0.933
80 | TTTCCAAACT | 0.963
81 | TAAGGATGAA | 0.975
82 | TACATACCGC | 1.29
83 | AGTACGTGGG | 0.978
84 | CTCATCTGGT | 0.976
85 | GGACGTTGGG | 0.968
86 | CGGCACAGCA | 0.983
87 | GCTAGCGTGT | 0.997
88 | GGGGGCGAGA | 1
89 | AAGTGAGCCT | 1.06
90 | TGTGACTTCA | 1
91 | ACTATCGGTA | 1.05
92 | CACGATTCGG | 1.01
93 | GCCTACGGGG | 1.03
94 | TCGTTCCGAC | 1.56
95 | CATTAAATGC | 1.08
96 | ACCTGATGC | 1.12
97 | TGGCCCCCTA | 0.958
98 | AGGTACCTAA | 1.01
99 | TACACACAGA | 1.26
100 | TTGATATGTC | 1
101 | TATAACAATT | 0.98
102 | TGTTAATTAA | 0.997
103 | TGCTTTTGCT | 0.959
104 | TTTGTACCCC | 1.04

Row | Sequence | switch fluorescence ratio
105 | AGTCATGCCC | 1.24
106 | ACGGTAGATG | 1.06
107 | TACCTGGAGC | 1.01
108 | TGGCAGATAT | 1.02
109 | GCGGCTATTA | 0.952
110 | AGTAAAGATC | 0.965
111 | TCGTTCTAGG | 1.02
112 | TATTTTCTA | 0.971
113 | ATTGTATAT | 0.957
114 | CGGGCAAAAT | 1.01
115 | GATCGGATCC | 0.979
116 | GAATGGCTC | 0.988
117 | CGTAGTGGAC | 2.27
118 | TCACCAAAC | 1.05
119 | TTTATCCAGT | 0.963
120 | AACGATGCTT | 1.07
121 | TCCGTTATCT | 1.16
122 | TCTAGCAGTG | 0.96
123 | GATATTCGGA | 1.04
124 | TGGGCCTTTT | 0.991
125 | GACACATCA | 1.06
126 | ATCTAACCAG | 1.05
127 | TCCACATTCA | 1.02
128 | GTTAATGATG | 1.01
129 | GGGGCCCAAT | 1.08
130 | AATCTCACAG | 1.03

Row | Sequence | switch fluorescence ratio
131 | ATATACGGAT | 1.02
132 | ACCGTGGTGT | 1.06
133 | ATTCGTGCAA | 1.19
134 | AAGCCGTCG | 0.961
135 | AGAGTTCATT | 1.01
136 | ACCGTCACCG | 1.24
137 | CTATGTAACA | 0.984
138 | AGACCTGATG | 1
139 | ACTGCTCGGA | 1.02
140 | ACTCGCGCTG | 1.2
141 | TTAGGATGC | 0.985
142 | TAGCGCTGTT | 1.05
143 | AATGGAAGT | 1.05
144 | AAACGCTTGG | 1.02
145 | GGTTGATCAC | 0.996
146 | CTTAAGGAAG | 0.989
147 | ATTCGTGGCT | 0.961
148 | TGGGATCATG | 0.961
149 | TTTGATGACC | 0.922
150 | ACAAATCAAA | 1
151 | ATCCTAGAAG | 1.02
152 | ATCTCCAAAA | 1.62
153 | AGCCGGGTCA | 1.07
154 | CGCAATGGGT | 3.99
155 | ATTTTGCGGT | 1.01
156 | AACGTTTCGA | 1.03

Row | Sequence | switch fluorescence ratio
157 | TCACGAAGGC | 1.03
158 | TTGTACTGGC | 1.12
159 | CGTGTTGACA | 0.969
160 | GACTCGTGCT | 1.01
161 | ACTGACGTGT | 1.07
162 | TGGATGTCTC | 1
163 | TTATAAAA | 0.945
164 | GGGTCCATAG | 0.981
165 | TACCTTAGAC | 1.14
166 | AGAACAGCAG | 1.02
167 | CGCTTTACTT | 1.36
168 | AGGTGCAACT | 1
169 | TAGAGACGAA | 1
170 | AACCTTTACG | 1.26
171 | GAGTGGTGGA | 0.998
172 | TGATGATTTG | 1
173 | TGGGTTAAG | 0.996
174 | GGTGTGTTTC | 1
175 | ACTTAGGGCA | 1.08
176 | GGTTCATGTT | 0.983
177 | AGTTGTCGTT | 0.995
178 | CATTGGAGA | 0.975
179 | ATTGGGCGC | 0.997
180 | TTATAAAACA | 1.04
181 | TAACCGTAGG | 0.983
182 | TGGCACACCG | 0.987

Row | Sequence | switch fluorescence ratio
183 | TTTCTGTGCA | 1.03
184 | AGTGATTC | 1.32
185 | ATAGCCA | 1.23
186 | AACTGCTCGA | 1.03
187 | ACATTTAGCA | 0.982
188 | TCTTTGGTGT | 1.03
189 | CGTCGAGTAA | 1.07
190 | CCTTCAATAG | 1.15
191 | AAAGCTCACG | 1.11
192 | TCGGTTCTAT | 1.01
193 | GCTGAAGCTT | 1.04
194 | TTATCAGGAC | 1.07
195 | TCTTTATGGC | 0.985
196 | TACTAGCGAG | 0.988
197 | TCGGGTATAC | 1.27
198 | CTTACGCACT | 1.31
199 | CCTTGCTCAC | 4.07
200 | TGGCCTGTAC | 1.15
201 | TATGGTTCAC | 1.01
